Values joined by “and” are separate entries in the source; they are usually repeats but may differ in a detail not shown here. Equal values may be shown once.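 Dose response: 5 concentrations. Exposure: 48 h. Format: 96-well plates. Endpoint: linear interpolation; highest concentration if not reached. The concentration for 50% growth inhibition is given as GI50. TGI: concentration producing complete growth inhibition.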 Square brackets hold non-standard residues; d marks the D form. Peptide text beside a SMILES is read from it. * marks the point of attachment. Bn2Val = CC(C)[C@@H](C(=O)*)N(Cc1ccccc1)Cc1ccccc1; NH(4-Cl-benzyl) = Clc1ccc(CN*)cc1; NMeV = CN[C@H](C(=O)O)C(C)C; dNMeA = CN[C@H](C)C(=O)O
The compounds below were run on NCI-H322M lung (assay: NCI-60 cell line screen, 48 h).
`C#Cc1c(C)c(/C=C/C(C)=C/C(=O)OC)n(C)c1C` gave a TGI greater than 100 µM.
`Cc1ccccc1N=C(N)Nc1ccccc1C` showed a TGI greater than 100 µM.
With `CC(=O)Nc1ccc(OC/C(N)=N/NC(=O)c2ccncc2)cc1` the TGI was greater than 100 µM.
For `O=c1/c(=C\c2ccc(F)cc2)sc2n1C(c1ccc(F)cc1)C1=C(N=2)c2ccc3ccccc3c2OCC1` (stereo not given), the GI50 was greater than 100 µM and the TGI was greater than 100 µM.
`CCCCCCCCCCCCCCCCCCNc1nc(=O)n(C2CC(O)C(COP(=O)(O)O)O2)cc1F` (stereo not given) showed a TGI greater than 100 µM.
Compound `COc1cc2c(cc1O)CC1c3c(cc(O)c(OC)c3-2)CCN1C` (stereo not given) has a TGI greater than 100 µM.
`CCOC(=O)Nn1c(CC#N)nnc1Cc1ccccc1` gave a TGI greater than 100 µM.
`Nc1ccc(S(=O)(=O)Nc2nc3ccccc3nc2N2CCCCCC2)cc1` gave a TGI greater than 100 µM.
With `CCc1cc2c(c3c1CCCC3=O)CC1(Cc3ccc(C(=O)OC)cc3C1)C2` (stereo not given) the TGI was greater than 100 µM.
`Cc1c(NC(=S)NC(=O)c2ccc([N+](=O)[O-])cc2)c(=O)n(-c2ccccc2)n1C` was tested, and the TGI was greater than 100 µM.
In the case of `NNC(=O)C1(NC(=O)c2ccccc2)C(c2ccccc2)C(c2ccccc2)=NN1c1ccccc1` (stereo not given), the TGI was greater than 100 µM.
`CSCCCNC(=O)c1ccc2c(c1)/C(=C/c1[nH]c(C)cc1C)C(=O)N2` gave a GI50 of 0.434 µM and a TGI greater than 100 µM.
`CC1=C2C(=CO[C@H](C)[C@H]2C)C(=O)C(C(=O)O)=C1O` was tested, and the TGI was 63.8 µM and 66.8 µM.
`C#Cc1nc2ccccc2c(=O)[nH]1` was tested, and the GI50 was 3.22 µM and the TGI was 11.1 µM.
Compound `c1ccc(-c2nc(N3CCOCC3)c3c4c(sc3n2)CCCCCC4)nc1` has a GI50 of 5.53 µM and a TGI of 20.1 µM.
`COc1cnc2c(c1)C(=O)c1c-2n(CCCNCCO)c(=O)c2ccncc12` was tested, and the GI50 was 1.87 µM and the TGI was 24.8 µM.
Work on `CN(C)Cc1cc(C(=O)/C=C/c2ccccc2)cc(CN(C)C)c1O` yielded a TGI greater than 100 µM.
Work on `Cc1cc(N(CCC#N)CCC#N)ccc1N=Nc1ccc(Br)cc1` yielded a TGI greater than 100 µM.
`CCOC(=O)c1cc2c([N+](=O)[O-])c(N)ccc2s1` showed a TGI greater than 100 µM.
Work on `COc1cccc(N=N/C(=N\NC(=O)c2ccc(C)cc2)c2ccc(N(CCC#N)CCC#N)cc2C)c1` yielded a TGI greater than 100 µM.
`O=C(c1ccccc1)c1c(NCC(O)CN2CCOCC2)n(Cc2ccccc2)c(=O)n(Cc2ccccc2)c1=O` (stereo not given) gave a GI50 of 46.9 µM and a TGI greater than 100 µM.
`O=C([O][Sn]([O]C(=O)c1ccccn1)([c]1ccccc1)[c]1ccccc1)c1ccccn1` showed a GI50 of 14.7 µM and a TGI of 28.6 µM.
For `CC(C)[C@H](NC(=O)[C@H](C(C)C)N(Cc1ccccc1)Cc1ccccc1)C(=O)N(C)[C@H](C(=O)N1CCC[C@H]1C(=O)N(C)[C@H](C)C(=O)NCc1ccc(Cl)cc1)C(C)C` (Bn2Val-V[NMeV]P[dNMeA]-{NH(4-Cl-benzyl)}), the TGI was greater than 100 µM.
Work on `COc1ccc(C(O)c2cc3c(N)c(C(=O)Nc4cccc(Cl)c4)sc3nc2C)cc1` (stereo not given) yielded a GI50 of 2.18 µM and a TGI greater than 64.6 µM.
Compound `Cc1c2cc(Cl)c3ccccc3c2c[n+]2ccccc12` has a GI50 of 2.62 µM and a TGI of 32.8 µM.
Work on `CC(C)(C)n1c(=O)[nH]c(=O)n1C(C)(C)C` yielded a TGI greater than 100 µM.
Work on `CCN(CC)C(=S)SS(=O)(=O)c1cccc(N)c1` yielded a TGI greater than 100 µM.
`Cn1cc(-c2ccc3nnc(Sc4ccc5ncccc5c4)n3n2)cn1` was tested, and the GI50 was greater than 100 µM and the TGI was greater than 100 µM.
Work on `O=C1OC[C@H]2[C@@H]1[C@H]1O[C@@H]2C2=C(CCC2)C1=O` yielded a TGI greater than 100 µM.
`Cc1nc(N)c(N2CCN(CN)CC2)c(=O)[nH]1` was tested, and the TGI was greater than 100 µM.
In the case of `CC(Oc1ccccc1Cl)C(=O)NN1C(=O)CSC1c1ccccc1` (stereo not given), the TGI was greater than 100 µM.
Work on `CN(C)CCn1c(CO)nc2c1c(=O)n(C)c(=O)n2C` yielded a TGI greater than 100 µM.
Work on `Cc1cc(=O)[nH]c(NN2C(Cl)C(=O)C2c2ccc([N+](=O)[O-])cc2)n1` (stereo not given) yielded a TGI of 25.1 µM.
Compound `CN=C(/N=c1\ssc(=NC)n1C)N(C)C` has a TGI greater than 100 µM.
Compound `C1CC2CN(CCCN3CCOCC3)C(C1)O2` (stereo not given) has a TGI greater than 100 µM.
In the case of `C=CCC1C(O[Si](C)(C)C(C)(C)C)C(CO[Si](C)(C)C(C)(C)C)OC1n1ccc(=O)[nH]c1=O` (stereo not given), the TGI was 3.04 µM.
For `COc1cc(C2C(Cl)C(=O)N2c2c(C)n(C)n(-c3ccccc3)c2=O)ccc1O` (stereo not given), the TGI was greater than 100 µM.
For `O=C(O)COc1cc(-c2ccccc2)nc2cc(F)ccc12`, the TGI was greater than 100 µM.
With `CC1(C)CC2(CC(C)(C)N1O)NC(=O)OC2=O` the TGI was greater than 100 µM.
Work on `O=C(Nc1ccc(-c2nc(-c3cccc(OCCN4CCOCC4)c3)c(-c3ccnc(Br)c3)[nH]2)cc1)c1ccccc1` yielded a GI50 of 3.37 µM and a TGI greater than 100 µM.
In the case of `N/N=C1\C(=O)N(c2ccc(Cl)cc2Cl)C(=O)C(=O)C1c1nc2ccccc2o1` (stereo not given), the TGI was greater than 100 µM.
Compound `COC[C@@H](N=Cc1ccc([N+](=O)[O-])cc1)C(C)C` has a TGI greater than 100 µM.
Work on `CC(C)(C)CC(C)(C)c1cc(O)c(O)c(CN2CCCCC2)c1` yielded a TGI of 30.4 µM.
Compound `CCCCCCCCNCCC[C@@H](C)[C@H]1CC[C@H]2[C@@H]3[C@H](OCCCN)C[C@H]4C[C@H](OCCCN)CC[C@]4(C)[C@H]3C[C@H](OCCCN)[C@]12C` has a GI50 of 2.62 µM and a TGI of 14.1 µM.
For `C=CC(=O)Nc1cc(N2CCN(CC)CC2)ccc1Nc1cc(N(C)C(=O)Nc2c(Cl)c(OC)cc(OC)c2Cl)ncn1`, the GI50 was 12.7 µM and the TGI was 26.4 µM.
In the case of `NN=C(CC(O)(C(F)(F)Cl)C(F)(F)Cl)CC(O)(C(F)(F)Cl)C(F)(F)Cl`, the TGI was greater than 10 µM.
With `O=C1NC(=O)C(C(CC(=O)c2ccc(Cl)cc2)c2ccc(Cl)cc2)C(=O)N1` (stereo not given) the TGI was greater than 100 µM.

From PubChem BioAssay (NCI)
